SMILES strings stand for the structures. The full ranking holds about 110,000 compounds; the median of “z-score” is about -0.1, and the highest 2% start at about 2. The list shows a part of the results.

In this experiment the target is Metabotropic glutamate receptor 8 (Rattus norvegicus) (UniProt P70579). The experiment can be described thus: rat mGluR8 modulators via GIRK flux, primary screen, cell-based, thallium flux, HTS (AID 488969). Particulars: HEK293 rat mGluR8, GIRK (G protein-gated inwardly rectifying potassium channel) thallium flux, FluoZin2; at 10 µM; stronger effect = higher value; submaximal glutamate (EC20) added with thallium.
Sequence of UniProt P70579 (P70579 whole entry, looked up): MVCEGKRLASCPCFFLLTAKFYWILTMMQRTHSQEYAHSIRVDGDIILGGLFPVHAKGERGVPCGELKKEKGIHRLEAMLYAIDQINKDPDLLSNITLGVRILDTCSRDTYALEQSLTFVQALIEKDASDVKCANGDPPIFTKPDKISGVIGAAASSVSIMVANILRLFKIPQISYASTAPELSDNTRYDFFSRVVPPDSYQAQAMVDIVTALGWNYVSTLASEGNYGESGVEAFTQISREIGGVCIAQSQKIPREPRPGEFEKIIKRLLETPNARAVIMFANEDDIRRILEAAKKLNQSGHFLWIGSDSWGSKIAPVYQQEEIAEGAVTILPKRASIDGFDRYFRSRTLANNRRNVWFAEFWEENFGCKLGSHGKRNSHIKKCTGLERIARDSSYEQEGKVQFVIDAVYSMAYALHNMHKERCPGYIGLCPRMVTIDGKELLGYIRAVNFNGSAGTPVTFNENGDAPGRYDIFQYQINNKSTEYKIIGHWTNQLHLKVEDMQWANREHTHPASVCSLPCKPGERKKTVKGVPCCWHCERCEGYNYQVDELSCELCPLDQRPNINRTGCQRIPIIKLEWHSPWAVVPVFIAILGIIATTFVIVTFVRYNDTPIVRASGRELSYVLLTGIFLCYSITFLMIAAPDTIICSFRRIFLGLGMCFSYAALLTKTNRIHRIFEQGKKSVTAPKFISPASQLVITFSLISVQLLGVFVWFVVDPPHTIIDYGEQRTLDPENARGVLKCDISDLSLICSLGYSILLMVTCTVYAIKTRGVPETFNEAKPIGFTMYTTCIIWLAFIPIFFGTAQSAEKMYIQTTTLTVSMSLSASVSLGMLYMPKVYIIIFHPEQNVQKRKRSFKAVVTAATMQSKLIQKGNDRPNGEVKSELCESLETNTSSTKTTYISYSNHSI
Take `NC(=O)C1CCN(c2ncnc3c(-c4ccccc4)nsc23)CC1`: the z-score was -0.459.

`COc1ccccc1OCCCn1c(=O)sc2ccccc21`: the z-score was -0.167. To `O=C(Nc1ncc(Cc2ccccc2Cl)s1)c1ccc(-c2cccc([N+](=O)[O-])c2)o1` belongs -0.173.

`COc1ccc(/C=N/NC(=O)c2ccccc2O)cc1CSc1ccccn1` yielded a z-score of 0.779. To `O=C(O)CN=C1NC2(CCCCC2)Cc2ccccc21` belongs 0.0399; to `Cc1cc(C)n2nc(-c3cccnc3)nc2n1`, 0.012. The figure for `CC(=O)Cn1c(C(F)(F)F)nc2ccccc21` is 0.0143; for `Cc1cc(C)cc(CC(Cc2nc3ccccc3[nH]2)c2nc3ccccc3[nH]2)c1` (centres undefined) it is 0.00285. The figure for `C=CCSc1n[nH]c(-c2ccc(OCCC)cc2)n1` is 0.93. In the case of `CCOC(=O)c1nnc(-c2ccccc2)nc1NCc1ccccc1`, the z-score is -0.476.

For the molecule `Cc1[nH]c(=O)[nH]c(=O)c1/C=N/NC(=O)[C@H](C)NC(=O)OC(C)(C)C`, the z-score is -0.214. On to `COc1ccc(C2N3CC4(C)CN2CC(C)(C3)C4O)cc1OC` (centres undefined), for which the z-score was -0.873.

For the molecule `c1ccc(-c2nc(NCc3cccnc3)c3ccccc3n2)cc1`, the z-score is -0.237. The figure for `O=C(O)CCCNS(=O)(=O)c1ccc(F)cc1` is -0.131; for `COc1ccccc1N1CCN(C(c2cccs2)C(C)NC(=O)c2cccs2)CC1` (centres undefined) it is -0.195. In the case of `CCOC(=O)C1CCCN(C(=O)c2cc3c(-c4cccc(OC)c4)nn(C)c3s2)C1` (centres undefined), the z-score is -0.832. Molecule `CCc1ccc2c(c1)cc(CN(C(=S)Nc1ccccc1C)C1CC1)c1nnnn12` yielded a z-score of 0.143. The figure for `CC(C)(C)c1ccc(OCCCC(=O)NC2=NCCS2)cc1` is -0.13; for `CCCCc1nnc(NC(=O)CSc2nc(=O)cc(N)n2-c2cccc(C)c2)s1` it is -0.519. On to `Cc1ccccc1CN(c1ccc(C(=O)Nc2ccccc2C(=O)NCc2ccco2)cc1)S(C)(=O)=O`, for which the z-score was -0.0931.

`Cc1nnc(NC(=O)CSc2nccn2-c2cccc(C)c2C)s1`: the z-score was -0.535.

With `COC(=O)CSc1nc2ccc(NC(C)=O)cc2s1`, the z-score was -0.096. The figure for `c1cc(C(c2nnnn2C2CCCCC2)N2CCN3CCCC3C2)ccn1` (centres undefined) is -0.11. With `CN(C)C(=S)NCc1ccccc1`, the z-score was 0.087. To `CCCCS(=O)(=O)Nc1ccc2c(c1)ncn2C1CCCCC1` belongs 0.544; to `CC(C)NC(=S)N/N=C/c1cccs1`, 1.57.

`Cc1nc(SCc2c(F)cccc2Cl)n[nH]1`: the z-score is 0.0291. The figure for `Cc1csc2nc(CSc3ccc(Cl)cc3)cn12` is -0.569. In the case of `CCC1CCc2c(sc(NC(=O)c3ccoc3C)c2C(N)=O)C1` (centres undefined), the z-score was -0.28. The figure for `O=C(C1CCCCC1)N1CCC(n2nnc3ccccc32)CC1` is -0.194; for `CCN(CC)c1ccc(/C=N/Nc2nc3ccccc3[nH]2)cc1` it is -0.685. To `COC(=O)C(NC(=O)C(CC(C)C)NC(=O)C1CCC(C)CC1)C(C)C` (centres undefined) belongs 0.467; to `COc1ccc2nc3sc(C(=O)NCc4cccs4)c(N)c3cc2c1`, -0.595; to `Cc1ccc(C)n1C(Cc1ccccc1)C(=O)O` (centres undefined), -0.216. For `Cc1cc(C(=O)Nc2ccccn2)no1`, the z-score is -0.0646.

In the case of `COc1ccc(OC)c(C(=O)CSc2nnc(-c3cccs3)n2C)c1`, the z-score was -0.572. As to `Cc1nn2c(N)c(C#N)cnc2c1-c1ccc(Cl)cc1`, the z-score is -0.468.

In the case of `Cc1cccc(OCCN2CSC(=S)N(C)C2)c1`, the z-score is -0.523. For the molecule `Cc1cc(C(=O)NCc2cccnc2)n(-c2ccccc2)n1`, the z-score was -0.00475. To `COc1ccc(-c2ccc(=O)n(CC(=O)N3CCN(c4ccccc4OC)CC3)n2)cc1` belongs -0.0822; to `CS(=O)(=O)N1CCN(c2c(Cl)cccc2[N+](=O)[O-])CC1`, -0.0974.

For `S=C(c1ccc2c(c1)OCO2)N1CCCCCC1`, the z-score was 0.367.

With `CCN(CC)C(=O)CNC(=S)N(CCCN1CCOCC1)Cc1cccs1`, the z-score is -0.0461. The figure for `COc1ccc(Cc2nnc(NC(=O)CSc3ccc(C)cc3)s2)cc1` is 0.0974; for `Cc1c(/C=C/C(=O)c2ccc(Cl)s2)cnn1C` it is -0.148. To `O=C(OCCN1C(=O)c2ccccc2C1=O)c1cnccn1` belongs -0.322.

For the molecule `CC1CCN(S(=O)(=O)c2ccc(NC(=O)CCN3C(=O)c4ccccc4C3=O)cc2)CC1`, the z-score is -0.0347. The figure for `Cc1cc(C(C)(C)C)oc1C(=O)N1CCN(C(=O)c2oc(C(C)(C)C)cc2C)CC1` is -0.122; for `C/C=C/C(=O)OCC(=O)NC(=O)NC(C)C` it is -0.893; for `Cc1nc2ccccc2c2oc(C(=O)NCC3CCCO3)cc12` (centres undefined) it is -0.169. To `CCn1c(=O)c2cc(S(=O)(=O)NCCOc3ccccc3)ccc2n(CC)c1=O` belongs -0.212. With `CCOc1ccccc1N1CCN(Cc2ccco2)CC1`, the z-score came to 0.418. To `COc1ccc(N(C)C(=O)CCS(=O)(=O)c2cccc3nonc23)c(OC)c1` belongs 0.0431; to `Cc1ccc(N2CCN(C(=O)c3ccccc3Br)CC2)c(C)c1`, -0.466; to `CCCn1nnnc1SCC(=O)NCc1ccccc1`, 0.377. The figure for `CCOC(=O)C1CCCN(C(=O)C(C)Oc2ccc(Cl)cc2Cl)C1` (centres undefined) is -1.01. In the case of `Cc1ccc(CNC(=O)c2oc3ccc(S(=O)(=O)N4CCC5(CC4)OCCO5)cc3c2C)cc1`, the z-score was -0.761. Turning to `O=C(CCc1ccccc1)Nc1cccc(-c2nnc(-c3ccco3)o2)c1`, the z-score is -0.189.

On to `c1ccc(NCc2nc3ccccc3n2CCOc2ccccc2)cc1`, for which the z-score was -0.153. The figure for `Cn1c(SCc2nnc3n2CCCCC3)nc2ccccc21` is 0.354. On to `O=C1C(Cl)=C(NCCCO)C(=O)c2ccccc21`, for which the z-score was -0.185. To `COc1ccc(C(C(=O)NC2CCCCC2)N(C(=O)c2ccco2)c2ccc(-n3cnnn3)c(C)c2)cc1` (centres undefined) belongs -0.0291; to `COc1ccccc1NC(=O)Nc1ccc(Cl)c(S(=O)(=O)Nc2ccccc2OC)c1`, 0.428; to `CN(C)CCNc1ncnc2ccccc12`, -0.498. To `Cc1cc(C(=O)NCc2ccc(S(N)(=O)=O)cc2)cs1` belongs -0.157. With `CCN(c1nc(C)cc(OC)n1)S(=O)(=O)c1ccccc1`, the z-score was -0.243.

For `CCN(CC)S(=O)(=O)c1ccc(S(=O)(=O)N2CCCC2C(=O)O)cc1` (centres undefined), the z-score is -0.394. To `COc1ccc(CCNC(=O)c2sc3ccccc3c2Cl)cc1OC` belongs -0.565. The figure for `CCC(C)(C)C1CCc2c(sc(NC(=O)c3cccs3)c2C(N)=O)C1` (centres undefined) is 0.11; for `Cc1ccc(NC(=O)Nc2nnc(Cc3ccc([N+](=O)[O-])cc3)s2)cc1C` it is 0.424. `Clc1ccc(C2=Nn3c(nnc3-c3cccs3)SC2)cc1`: the z-score is -0.153. To `COc1ccc(C(=O)NCCn2ccc3ccccc32)c(OC)c1` belongs -1.56; to `Cc1ccc(C(=O)NNC(=O)CCN2C(=O)C3CCCCC3C2=O)cc1` (centres undefined), -0.342; to `COc1ccc(NC(=O)COC(=O)CC2CC3CCC2C3)c([N+](=O)[O-])c1` (centres undefined), -0.182.

The values above are taken from PubChem BioAssay AID488969 (Vanderbilt High Throughput Screening Facility, 2010).
